The supplement of paper PMC9446081
About 220 (0.56%) of roughly 39,000 compounds showed activity. This is one part of the list.

system: Escherichia coli K-12 BW25113; experiment: relative growth (OD600 normalised to plate interquartile mean) (fraction); higher = less growth inhibition, active = 0.2 or less; details: 50 µM; LB; incubation time: overnight (16-24 h)
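Note: static incubation at 37 °C against the wild-type strain, values averaged over two biological replicates.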

Which relative growth does the source give for CO[C@@]1(C2=NCCN2)COc2ccccc2O1 here?
The relative growth was inactive: 0.988.

With NC[C@H](c1ccco1)N1CCCCCC1 as the compound, how does the relative growth read?
Its relative growth is inactive: 0.992.

With C=CC(C)(O)CCC1C(=C)CC(OC(C)=O)C2C(C)(C)CCCC12C (configuration not stated) as the compound, how does the relative growth read?
Its relative growth is inactive: 0.72.

How did the relative growth turn out when Cc1noc(C)c1NC(=O)N(C)C[C@H]1OCCCC[C@@H](C)Oc2ccc(NC(=O)c3ccccc3)cc2C(=O)N([C@H](C)CO)C[C@H]1C was run?
Its relative growth is inactive: 0.994.

How did the relative growth turn out when Cn1cnc(S(=O)(=O)N[C@H]2C=C[C@@H](CC(=O)Nc3ccccc3)O[C@H]2CO)c1 was run?
Its relative growth is inactive: 0.979.

With COc1ccc(S(=O)(=O)Nc2ccc3c(c2)C(=O)N([C@@H](C)CO)C[C@@H](C)[C@H](CN(C)C(=O)NC(C)C)O3)cc1 as the compound, how does the relative growth read?
Its relative growth is inactive: 0.982.

With COc1ccc(NC(=O)N(C)C[C@@H]2Oc3c(NS(C)(=O)=O)cccc3C(=O)N([C@H](C)CO)C[C@@H]2C)cc1 as the compound, how does the relative growth read?
Its relative growth is inactive: 0.99.

Which relative growth does the source give for C[C@H]1CN([C@@H](C)CO)C(=O)c2cc(NS(=O)(=O)c3cccs3)ccc2O[C@@H]1CN(C)S(=O)(=O)c1ccc(F)cc1 here?
The relative growth was inactive: 0.898.

Which relative growth does the source give for COc1ccc([Si](C)(C)[C@@H]2[C@@H](CC(=O)N3Cc4ccccc4C[C@H]3CO)O[C@]3(C(=O)N(C)c4c(Br)cc(C)cc43)[C@H]2C)cc1 here?
Its relative growth is inactive: 1.

Which relative growth does the source give for C[C@H]1CN([C@@H](C)CO)C(=O)c2cccc(NC(=O)Nc3ccc4c(c3)OCO4)c2O[C@@H]1CN(C)Cc1ccc(-c2ccccc2)cc1 here?
The relative growth was inactive: 0.993.

Which relative growth does the source give for Cc1ccc(S(=O)(=O)N(C)C[C@H]2Oc3ccc(NC(=O)C4CC4)cc3C(=O)N([C@H](C)CO)C[C@@H]2C)cc1 here?
The relative growth was inactive: 1.

Which relative growth does the source give for O=C(Cc1ccncc1)Nc1ccc2c(c1)[C@H]1C[C@@H](CC(=O)N3CCc4ccccc4C3)O[C@H](CO)[C@H]1O2 here?
The relative growth was inactive: 1.02.

How did the relative growth turn out when C[C@@H]1CCCCO[C@H](CN(C)C(=O)Nc2cccc3ccccc23)[C@H](C)CN([C@@H](C)CO)C(=O)c2cc(NC(=O)Cc3ccccc3)ccc2O1 was run?
Its relative growth is inactive: 1.

How did the relative growth turn out when COc1ccc(S(=O)(=O)Nc2ccc3c(c2)CC(=O)N([C@@H](C)CO)C[C@H](C)[C@H](CN(C)S(=O)(=O)c2ccc(C)cc2)O3)cc1 was run?
Its relative growth is inactive: 1.03.

How did the relative growth turn out when Cn1nnnc1SCC(=O)Nc1ncccn1 was run?
The relative growth was inactive: 0.871.

COc1ccc(NC(=O)Nc2cccc3c2O[C@@H](CN(C)S(=O)(=O)c2cn(C)cn2)[C@H](C)CN([C@H](C)CO)C3=O)cc1 was tested. Which relative growth did it give?
Its relative growth is inactive: 0.978.

C[C@@H]1CN([C@@H](C)CO)C(=O)c2cccc(NC(=O)c3nc4ccccc4s3)c2O[C@@H]1CN(C)CC1CCCCC1 was tested. Which relative growth did it give?
The relative growth was inactive: 1.02.

How did the relative growth turn out when C[C@@H]1CN([C@@H](C)CO)C(=O)c2cccc(NS(=O)(=O)c3ccc(F)cc3)c2O[C@H]1CN(C)S(=O)(=O)c1ccccc1 was run?
The relative growth was inactive: 1.03.

Which relative growth does the source give for O=C(CCc1ccc(O)cc1)c1c(O)cc(O)cc1O here?
Its relative growth is inactive: 1.14.

Which relative growth does the source give for Cc1noc(C)c1S(=O)(=O)Nc1ccc2c(c1)C(=O)N([C@@H](C)CO)C[C@H](C)[C@H](CN(C)CC1CCCCC1)OCCCC[C@H](C)O2 here?
Its relative growth is inactive: 1.04.

How did the relative growth turn out when O=C(C[C@@H]1CC[C@H]2[C@@H](COC[C@@H](O)CN2S(=O)(=O)c2cccc(Cl)c2)O1)NCCCN1CCOCC1 was run?
Its relative growth is inactive: 0.999.

For CC(C)NC(=O)N(C)C[C@@H]1Oc2ccc(NC(=O)C3CCCCC3)cc2CC(=O)N([C@H](C)CO)C[C@@H]1C, which relative growth is on record?
Its relative growth is inactive: 0.969.

How did the relative growth turn out when C[C@@H]1CCCCO[C@H](CN(C)C(=O)Nc2ccccc2)[C@@H](C)CN([C@H](C)CO)C(=O)c2cc(NS(=O)(=O)c3ccc(F)cc3)ccc2O1 was run?
The relative growth was inactive: 1.

How did the relative growth turn out when C[C@@H]1CN([C@@H](C)CO)C(=O)c2cc(NS(=O)(=O)c3ccccc3)ccc2O[C@@H](C)CCCCO[C@@H]1CN(C)C(=O)Nc1ccc2c(c1)OCO2 was run?
The relative growth was inactive: 0.989.

With COCC#Cc1cnc2c(c1)C(=O)N([C@@H](C)CO)C[C@H](C)[C@H](CN(C)S(=O)(=O)c1cccc(OC)c1)O2 as the compound, how does the relative growth read?
The relative growth was inactive: 0.998.

How did the relative growth turn out when Cc1c[nH]c2ccccc12 was run?
Its relative growth is inactive: 0.939.

Which relative growth does the source give for O=C([C@H]1CCCO1)N1CCNCC1 here?
The relative growth was inactive: 1.04.

For COc1cccc(S(=O)(=O)N[C@@H]2CC[C@@H](CCn3cc(-c4ccccc4OC)nn3)O[C@@H]2CO)c1, which relative growth is on record?
Its relative growth is inactive: 0.985.

With COCCN[C@H]1CS(=O)(=O)C[C@@H]1O as the compound, how does the relative growth read?
Its relative growth is inactive: 0.988.

CC(C)NC(=O)N(C)C[C@@H]1OCCCC[C@@H](C)Oc2ccc(NC(=O)Nc3ccc(F)cc3)cc2C(=O)N([C@H](C)CO)C[C@H]1C was tested. Which relative growth did it give?
Its relative growth is inactive: 0.987.

How did the relative growth turn out when C[C@@H]1CCCCO[C@H](CN(C)C(=O)CCC(F)(F)F)[C@H](C)CN([C@H](C)CO)C(=O)c2cc(NC(=O)NC3CCCCC3)ccc2O1 was run?
Its relative growth is inactive: 0.989.

For CC(=O)NS(=O)(=O)c1ccc(NC(=O)c2ccccc2C(=O)O)cc1, which relative growth is on record?
The relative growth was inactive: 0.877.

For C[C@@H]1CN([C@@H](C)CO)C(=O)Cc2cc(NC(=O)Nc3ccc(F)cc3)ccc2O[C@@H]1CN(C)Cc1ccc(C(=O)Nc2ccccc2N)cc1, which relative growth is on record?
The relative growth was inactive: 1.01.

With C[C@@H]1CN([C@H](C)CO)C(=O)c2cc(NC(=O)Cc3cn(C)c4ccccc34)ccc2O[C@H]1CN(C)C(=O)Nc1cccc2ccccc12 as the compound, how does the relative growth read?
Its relative growth is inactive: 1.04.

Which relative growth does the source give for Cc1ccc(S(=O)(=O)Nc2ccc3c(c2)C(=O)N([C@H](C)CO)C[C@H](C)[C@H](CN(C)S(C)(=O)=O)OCCCC[C@H](C)O3)cc1 here?
The relative growth was inactive: 1.

Which relative growth does the source give for C[C@H](CO)N1C[C@H](C)[C@H](CN(C)Cc2ccc(Cl)c(Cl)c2)Oc2c(NS(=O)(=O)c3ccc(F)cc3)cccc2C1=O here?
The relative growth was inactive: 1.04.

With O=c1cc(-c2ccc(O)cc2)oc2ccc(O)cc12 as the compound, how does the relative growth read?
Its relative growth is inactive: 1.01.

For C[C@@H]1CN([C@@H](C)CO)C(=O)c2cccc(NS(C)(=O)=O)c2O[C@@H]1CN(C)S(=O)(=O)c1cn(C)cn1, which relative growth is on record?
The relative growth was inactive: 0.997.

With C[C@H]1CN([C@@H](C)CO)C(=O)Cc2cc(NC(=O)Cn3cnnn3)ccc2O[C@@H]1CN(C)C(=O)Nc1ccccc1 as the compound, how does the relative growth read?
The relative growth was inactive: 1.

Which relative growth does the source give for COc1ccc(S(=O)(=O)N(C)C[C@@H]2Oc3ccc(NS(C)(=O)=O)cc3CC(=O)N([C@H](C)CO)C[C@@H]2C)cc1 here?
The relative growth was inactive: 0.987.

How did the relative growth turn out when COc1ccc(S(=O)(=O)N[C@H]2CC[C@H](CC(=O)N3CCC(Cc4ccccc4)CC3)O[C@H]2CO)cc1 was run?
Its relative growth is inactive: 0.996.

For C[C@@H]1CCCCO[C@@H](CN(C)Cc2ccc(C(F)(F)F)cc2)[C@H](C)CN([C@H](C)CO)C(=O)c2cc(NC(=O)Nc3ccc4c(c3)OCO4)ccc2O1, which relative growth is on record?
The relative growth was inactive: 1.05.

How did the relative growth turn out when C[C@@H]1CCCCO[C@H](CN(C)Cc2ccc(C(F)(F)F)cc2)[C@@H](C)CN([C@H](C)CO)C(=O)c2cc(N(C)C)ccc2O1 was run?
Its relative growth is inactive: 0.944.

For C[C@H](CO)N1C[C@H](C)[C@H](CN(C)S(C)(=O)=O)Oc2ccc(NS(C)(=O)=O)cc2CC1=O, which relative growth is on record?
Its relative growth is inactive: 0.982.

How did the relative growth turn out when C[C@H]1CN([C@@H](C)CO)C(=O)Cc2cc(NC(=O)CCCCCC(=O)Nc3ccccc3N)ccc2O[C@@H]1CN(C)C(=O)Nc1ccc(C(F)(F)F)cc1 was run?
Its relative growth is inactive: 1.01.

COc1cccc(S(=O)(=O)N(C)C[C@@H]2Oc3cc(C4=CCCC4)ccc3S(=O)(=O)N([C@H](C)CO)C[C@@H]2C)c1 was tested. Which relative growth did it give?
Its relative growth is inactive: 1.03.

For CO[C@H]1CN(C)C(=O)c2cc(NS(C)(=O)=O)ccc2OC[C@@H](C)N(C(=O)C2CCOCC2)C[C@H]1C, which relative growth is on record?
Its relative growth is inactive: 1.

With CC(=O)N(C)C[C@H]1Oc2ncc(C#C[C@H](C)O)cc2C(=O)N([C@@H](C)CO)C[C@H]1C as the compound, how does the relative growth read?
The relative growth was inactive: 1.04.

How did the relative growth turn out when C[C@H](CO)N1C[C@H](C)[C@H](CN(C)C(=O)C2CCCCC2)Oc2cc(-c3cncnc3)ccc2S1(=O)=O was run?
The relative growth was inactive: 1.03.

C=CC[C@@H](CC(=O)N[C@@H](CO)Cc1ccccc1)C(=O)N[C@@H](C)COC(=O)[C@@H](CC=C)CC(=O)OC(C)(C)C was tested. Which relative growth did it give?
Its relative growth is inactive: 0.993.

How did the relative growth turn out when C[C@@H]1CN([C@H](C)CO)C(=O)c2cccc(NS(=O)(=O)c3ccc(F)cc3)c2O[C@@H]1CN(C)CC1CC1 was run?
Its relative growth is inactive: 1.

Which relative growth does the source give for COc1ccccc1C(=O)Nc1ccc2c(c1)C(=O)N(C)[C@@H]1CC[C@@H](CC(=O)NCc3ccc(Cl)c(Cl)c3)O[C@@H]1CO2 here?
The relative growth was inactive: 1.05.

Which relative growth does the source give for C[C@H](CO)N1C[C@H](C)[C@H](CN(C)C(=O)NC2CCCCC2)OCCCC[C@H](C)Oc2ccc(NC(=O)CCC(F)(F)F)cc2C1=O here?
The relative growth was inactive: 0.98.

Cc1ccc(S(=O)(=O)N2C[C@@H](O)COC[C@@H]3O[C@@H](CC(=O)N[C@H]4CCN(Cc5ccccc5)C4)CC[C@H]32)cc1 was tested. Which relative growth did it give?
Its relative growth is inactive: 0.963.

Which relative growth does the source give for COC[C@H]1CNN1C(=O)C1CCCC1 here?
Its relative growth is inactive: 0.986.

For COc1ccccc1S(=O)(=O)N(C)C[C@@H]1OCc2cnnn2CCCC(=O)N([C@@H](C)CO)C[C@H]1C, which relative growth is on record?
The relative growth was inactive: 0.981.

Which relative growth does the source give for COc1ccc(CN(C)C[C@@H]2OCCCC[C@@H](C)Oc3ccc(NS(=O)(=O)c4c(C)noc4C)cc3C(=O)N([C@H](C)CO)C[C@@H]2C)cc1 here?
The relative growth was inactive: 0.875.

With C[C@H]1CN([C@@H](C)CO)C(=O)c2cccc(NC(=O)Nc3cccc4ccccc34)c2O[C@@H]1CN(C)C(=O)Nc1cccc2ccccc12 as the compound, how does the relative growth read?
The relative growth was inactive: 1.01.

For CN(C)c1nc2cc(Cl)ccc2o1, which relative growth is on record?
The relative growth was inactive: 0.978.

COc1ccc(S(=O)(=O)N(C)C[C@H]2Oc3cc(C4=CCCC4)ccc3S(=O)(=O)N([C@H](C)CO)C[C@@H]2C)cc1 was tested. Which relative growth did it give?
The relative growth was inactive: 0.975.

Which relative growth does the source give for CC(C)(C)[S@@](=O)N1Cc2cc(C(=O)NCc3ccccn3)nc(-c3cccc(-c4ccccc4F)c3)c2[C@H]1CCO here?
Its relative growth is inactive: 1.01.

COc1ccc(S(=O)(=O)N(C)C[C@@H]2Oc3ccc(NC(=O)Cc4ccccc4)cc3CC(=O)N([C@@H](C)CO)C[C@H]2C)cc1 was tested. Which relative growth did it give?
Its relative growth is inactive: 0.978.
